# Measured values taken from the supplement of paper PMC8728848.
# The list shows a part of the results.
# Experiments:
# Test in all cases: glycan array binding signal (z-score within array); higher = stronger binding
# Conditions in all cases: glycan notation: IUPAC condensed, linker removed
# [1] = target: GlcNAc(b1-3)Gal(b1-4)GlcNAc(b1-3)Gal(b1-4)GlcNAc(b1-2)Man(a1-3)[GlcNAc(b1-3)Gal(b1-4)GlcNAc(b1-3)Gal(b1-4)GlcNAc(b1-2)Man(a1-6)]Man(b1-4)GlcNAc(b1-4)[Fuc(a1-6)]GlcNAc
# Procedure, shortened: (§1)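 Glycan array binding is given as a within-array Z-score, which can be read as non-binding when negative. The arrays, 3228 of them, came from the Consortium for Functional Glycomics database and were retained only where the protein sequence was available. Z-scores were averaged across arrays of the same protein sequence at different concentrations or buffers and across linkers.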
# [2] = target: GlcNAc(b1-3)Gal(b1-4)GlcNAc(b1-3)Gal(b1-4)GlcNAc(b1-2)[GlcNAc(b1-3)Gal(b1-4)GlcNAc(b1-3)Gal(b1-4)GlcNAc(b1-6)]Man(a1-6)[GlcNAc(b1-3)Gal(b1-4)GlcNAc(b1-3)Gal(b1-4)GlcNAc(b1-2)Man(a1-3)]Man(b1-4)GlcNAc(b1-4)[Fuc(a1-6)]GlcNAc
# Procedure, shortened: as §1
# [3] = target: GlcNAc(b1-3)Gal(b1-4)GlcNAc(b1-3)Gal(b1-4)GlcNAc(b1-3)Gal(b1-4)GlcNAc(b1-2)Man(a1-3)[GlcNAc(b1-3)Gal(b1-4)GlcNAc(b1-3)Gal(b1-4)GlcNAc(b1-3)Gal(b1-4)GlcNAc(b1-2)Man(a1-6)]Man(b1-4)GlcNAc(b1-4)GlcNAc
# Procedure, shortened: as §1
# [4] = target: GlcNAc(b1-3)Gal(b1-4)GlcNAc(b1-3)Gal(b1-4)GlcNAc(b1-3)Gal(b1-4)GlcNAc(b1-2)Man(a1-3)[GlcNAc(b1-3)Gal(b1-4)GlcNAc(b1-3)Gal(b1-4)GlcNAc(b1-3)Gal(b1-4)GlcNAc(b1-2)Man(a1-6)]Man(b1-4)GlcNAc(b1-4)[Fuc(a1-6)]GlcNAc
# Procedure, shortened: as §1
# [5] = target: GlcNAc(b1-3)Gal(b1-4)GlcNAc(b1-3)Gal(b1-4)GlcNAc(b1-3)Gal(b1-4)GlcNAc(b1-2)[GlcNAc(b1-3)Gal(b1-4)GlcNAc(b1-3)Gal(b1-4)GlcNAc(b1-3)Gal(b1-4)GlcNAc(b1-6)]Man(a1-6)[GlcNAc(b1-3)Gal(b1-4)GlcNAc(b1-3)Gal(b1-4)GlcNAc(b1-3)Gal(b1-4)GlcNAc(b1-2)Man(a1-3)]Man(b1-4)GlcNAc(b1-4)[Fuc(a1-6)]GlcNAc
# Procedure, shortened: as §1
# [6] = target: GlcNAc(b1-3)Gal(b1-4)GlcNAc(b1-3)Gal(b1-4)GlcNAc(b1-3)Gal(b1-4)GlcNAc(b1-3)Gal(b1-4)GlcNAc(b1-2)Man(a1-3)[GlcNAc(b1-3)Gal(b1-4)GlcNAc(b1-3)Gal(b1-4)GlcNAc(b1-3)Gal(b1-4)GlcNAc(b1-3)Gal(b1-4)GlcNAc(b1-2)Man(a1-6)]Man(b1-4)GlcNAc(b1-4)GlcNAc
# Procedure, shortened: as §1
# [7] = target: GlcNAc(b1-3)Gal(b1-4)GlcNAc(b1-3)Gal(b1-4)GlcNAc(b1-3)Gal(b1-4)GlcNAc(b1-3)Gal(b1-4)GlcNAc(b1-2)Man(a1-3)[GlcNAc(b1-3)Gal(b1-4)GlcNAc(b1-3)Gal(b1-4)GlcNAc(b1-3)Gal(b1-4)GlcNAc(b1-3)Gal(b1-4)GlcNAc(b1-2)Man(a1-6)]Man(b1-4)GlcNAc(b1-4)[Fuc(a1-6)]GlcNAc
# Procedure, shortened: as §1
# [8] = target: GlcNAc(b1-3)Gal(b1-4)GlcNAc(b1-3)Gal(b1-4)GlcNAc(b1-3)Gal(b1-4)GlcNAc(b1-3)Gal(b1-4)GlcNAc(b1-2)[GlcNAc(b1-3)Gal(b1-4)GlcNAc(b1-3)Gal(b1-4)GlcNAc(b1-3)Gal(b1-4)GlcNAc(b1-3)Gal(b1-4)GlcNAc(b1-6)]Man(a1-6)[GlcNAc(b1-3)Gal(b1-4)GlcNAc(b1-3)Gal(b1-4)GlcNAc(b1-3)Gal(b1-4)GlcNAc(b1-3)Gal(b1-4)GlcNAc(b1-2)Man(a1-3)]Man(b1-4)GlcNAc(b1-4)[Fuc(a1-6)]GlcNAc
# Procedure, shortened: as §1
# [9] = target: GlcNAc(b1-3)Gal(b1-4)GlcNAc(b1-3)Gal(b1-4)GlcNAc(b1-3)GalNAc
# Procedure, shortened: as §1
# [10] = target: GlcNAc(b1-3)Gal(b1-4)GlcNAc(b1-3)GalNAc
# Procedure, shortened: as §1
# [11] = target: GlcNAc(b1-3)Gal(b1-4)GlcNAc(b1-3)[GlcNAc(b1-3)Gal(b1-4)GlcNAc(b1-3)]GalNAc
# Procedure, shortened: as §1
# [12] = target: GlcNAc(b1-3)Gal(b1-4)GlcNAc(b1-6)[Gal(b1-3)]GalNAc
# Procedure, shortened: as §1
# [13] = target: GlcNAc(b1-3)Gal(b1-4)GlcNAc(b1-6)[GlcNAc(b1-3)Gal(b1-3)]GalNAc
# Procedure, shortened: as §1
# [14] = target: GlcNAc(b1-3)Gal(b1-4)GlcNAc(b1-6)[GlcNAc(b1-3)]Gal(b1-4)GlcNAc
# Procedure, shortened: as §1
# [15] = target: GlcNAc(b1-3)GalNAc
# Procedure, shortened: as §1
# [16] = target: GlcNAc(b1-3)Man
# Procedure, shortened: as §1
# [17] = target: GlcNAc(b1-3)[GlcNAc(b1-4)][GlcNAc(b1-6)]GlcNAc
# Procedure, shortened: as §1
# [18] = target: GlcNAc(b1-3)[GlcNAc(b1-6)]Gal(b1-4)GlcNAc
# Procedure, shortened: as §1
# [19] = target: GlcNAc(b1-3)[GlcNAc(b1-6)]GalNAc
# Procedure, shortened: as §1
# [20] = target: GlcNAc(b1-4)Gal(b1-4)GlcNAc
# Procedure, shortened: as §1
# [21] = target: GlcNAc(b1-4)GlcNAc
# Procedure, shortened: as §1
# [22] = target: GlcNAc(b1-4)GlcNAc(b1-4)GlcNAc
# Procedure, shortened: as §1
# [23] = target: GlcNAc(b1-4)GlcNAc(b1-4)GlcNAc(b1-4)GlcNAc(b1-4)GlcNAc
# Procedure, shortened: as §1
# [24] = target: GlcNAc(b1-4)GlcNAc(b1-4)GlcNAc(b1-4)GlcNAc(b1-4)GlcNAc(b1-4)GlcNAc
# Procedure, shortened: as §1
# [25] = target: GlcNAc(b1-4)[GlcNAc(b1-6)]GalNAc
# Procedure, shortened: as §1
# [26] = target: GlcNAc(b1-6)Gal(b1-4)GlcNAc
# Procedure, shortened: as §1
# [27] = target: GlcNAc(b1-6)GalNAc
# Procedure, shortened: as §1
# [28] = target: GlcNAc6S(b1-3)Gal(b1-4)GlcNAc
# Procedure, shortened: as §1
# [29] = target: Kdn(a2-3)Gal(b1-3)GalNAc
# Procedure, shortened: as §1
# [30] = target: Kdn(a2-3)Gal(b1-3)GlcNAc
# Procedure, shortened: as §1
# [31] = target: Kdn(a2-3)Gal(b1-4)Glc
# Procedure, shortened: as §1
# [32] = target: Kdn(a2-3)Gal(b1-4)GlcNAc
# Procedure, shortened: as §1
# [33] = target: Kdn(a2-3)Gal(b1-4)[Fuc(a1-3)]GlcNAc
# Procedure, shortened: as §1
# [34] = target: Kdn(a2-6)Gal(b1-4)GlcNAc
# Procedure, shortened: as §1
# [35] = target: Man(a1-2)Man(a1-2)Man(a1-3)Man
# Procedure, shortened: as §1
# [36] = target: Man(a1-2)Man(a1-2)Man(a1-6)[Man(a1-3)]Man
# Procedure, shortened: as §1
# [37] = target: Man(a1-2)Man(a1-3)Man
# Procedure, shortened: as §1
# [38] = target: Man(a1-2)Man(a1-3)[Man(a1-2)Man(a1-6)]Man
# Procedure, shortened: as §1
binder,measurement,setting,value
PX9937J-pdi-523-26-523 (Parabacteroides distasonis) (protein) EPVSSISDANYWKSPDLFKAFNIGLHGLLRSQSSYNIFVLGEPRSDIYGDQPFGGEATQGVERFSYNTINAEFTGISNFANFYTTLNQINLMIRRTNETDLLGEAEKNYYLGQAYGLRAYIYFHLLRSWGDVIITTEPTLGSELDISHLDKAASPASEVMDLIKKDIDASEKAFGGDYSYKQGKCYWSKPATLMLKGEVYLWSGRQMGGGTGDYTVAKTALQDLQQNGNLKLQEKFTDVFSFNNKENSEMIFALHSGKEDDFMMWRDYNWRNNMVPQREYMAGYCDETGTPFLEIPGYNLQGLMRYQVKKDHYLKSFREGDTRLKGTLKAVYKKHEDGTLEYIAPIQYKFQGTTLEGSNERSWYDDYPIYRYADALLLLAEAKALLGEDPSTEINAVRERAYGSEYFNAHKNEVAYPNDKGSFYNDNPFEAGDENVMEAILKERLREFFFEGKRWYDLRRFGKDYVLKYTTAQESRLLWPINEGALTNNPALKQTPGY,glycan array binding signal (z-score),[1],0.395
same,glycan array binding signal (z-score),[2],0.593
same,glycan array binding signal (z-score),[3],-0.29
same,glycan array binding signal (z-score),[4],-0.196
same,glycan array binding signal (z-score),[5],-0.387
same,glycan array binding signal (z-score),[6],1.88
same,glycan array binding signal (z-score),[7],-0.121
same,glycan array binding signal (z-score),[8],4.67
same,glycan array binding signal (z-score),[9],-0.256
same,glycan array binding signal (z-score),[10],-0.404
same,glycan array binding signal (z-score),[11],0.136
same,glycan array binding signal (z-score),[12],-0.195
same,glycan array binding signal (z-score),[13],0.161
same,glycan array binding signal (z-score),[14],-0.16
same,glycan array binding signal (z-score),[15],-0.622
same,glycan array binding signal (z-score),[16],-0.116
same,glycan array binding signal (z-score),[17],-0.736
same,glycan array binding signal (z-score),[18],-0.532
same,glycan array binding signal (z-score),[19],-0.1
same,glycan array binding signal (z-score),[20],-0.6
same,glycan array binding signal (z-score),[21],-0.151
same,glycan array binding signal (z-score),[22],-0.465
same,glycan array binding signal (z-score),[23],-0.657
same,glycan array binding signal (z-score),[24],-0.106
same,glycan array binding signal (z-score),[25],-0.306
same,glycan array binding signal (z-score),[26],-0.15
same,glycan array binding signal (z-score),[27],-0.586
same,glycan array binding signal (z-score),[28],0.294
same,glycan array binding signal (z-score),[29],-0.296
same,glycan array binding signal (z-score),[30],-0.418
same,glycan array binding signal (z-score),[31],0.055
same,glycan array binding signal (z-score),[32],0.484
same,glycan array binding signal (z-score),[33],0.174
same,glycan array binding signal (z-score),[34],-0.418
same,glycan array binding signal (z-score),[35],-0.508
same,glycan array binding signal (z-score),[36],-0.284
same,glycan array binding signal (z-score),[37],-0.138
same,glycan array binding signal (z-score),[38],-0.606
